# Assay results from ChEMBL document CHEMBL4888484, “Replenishing the malaria drug discovery pipeline: Screening and hit evaluation of the MMV Hit Generation Library 1 (HGL1) against asexual blood stage Plasmodium falciparum ,using a nano luciferase reporter read-out” (2022).
# Screen size: about 150,000 compounds; about 540 (0.36%) showed an effect of 50% or more. The list shows a part of the results.
# Tested on: Plasmodium falciparum
# Test: Primary screen in NF54 nanoGlo assay, in single point, at 2uM, 72h; a lower Z score goes with more inhibition
# Format: functional, Erythrocyte
# Settings: timepoint 72 hour
SMILES,% Inhibition,Z score
COc1ccc(S(=O)(=O)NC[C@H]2COCc3nc4c(C)cccc4n32)cc1,-2%,0.39
O=C1NC(=O)C2(CCN(C(=O)c3csc4ccccc34)CC2)N1,-2%,0.29
O=C(Nc1ccccc1C(=O)N1CCC(c2nc3ccccc3o2)CC1)c1ccco1,-3%,0.29
COC(C)C(N)=NOC1CCCN(c2ccc(F)cc2C)C1=O (stereo not given),0%,-0.09
Cc1cc(C)cc(NC(=O)[C@@H]2CCCN2S(=O)(=O)c2ccc3c(c2)NC(=O)CO3)c1,1%,-0.08
C#CCNC(=O)c1ccc(=O)n(Cc2nc(C(F)(F)F)cs2)c1,-18%,2.88
CCOc1cc(N2CC[C@@](O)(CN(C)C)C2)nc(C)n1,-1%,0.15
O=C(c1ccc(-c2nc(-c3ccc(F)cc3)no2)cc1)N1CCN(c2ccccc2)CC1,-4%,0.42
CC[C@H]1CCCCN1C(=O)c1nc2ncccc2o1,-9%,0.82
CC(=O)N1CCCN(CC(=O)N2CCC[C@H]2c2cccs2)CC1,4%,-0.57
N#Cc1c(NCCOC[C@H]2CCCO2)nc2ccccn12,-12%,1.41
O=C(NCc1cccnc1)c1csc(CN2CCC(Cc3ccccc3)CC2)n1,5%,-0.56
CCCn1nnnc1CN1CCO[C@@H](C)C1,-3%,0.33
OCc1nc2cc(-c3ccc4c(c3)OCCO4)ccc2[nH]1,-16%,2.66
c1ccc(-c2ncc[nH]2)c(OCCCn2ccnc2)c1,-7%,1.21
Cc1n[nH]c(C)c1S(=O)(=O)NCCn1nc2c(cc1=O)CCC2,13%,-1.68
COc1ccc2c(c1)CNCC[C@H]1COC(=O)N21,33%,-3.7
O=C(COC(=O)c1cccnc1)Nc1ccc2c(c1)OCO2,2%,-0.21
Cc1cccc(CN2CCN(C(=O)CN3C(=O)CNC3=O)[C@@H](C)C2=O)c1,5%,-1.01
CCOc1ccc2c(c1)C(=C1SC(C(=O)OC)=C(C(=O)OC)S1)C(=S)C(C)(C)N2C(=O)COc1ccc(F)cc1,-18%,1.91
CC(C)=Cc1oc2c(Cl)cc(Cl)cc2c1N1CC(C)OC(C)C1 (stereo not given),0%,0.02
COc1cc(NC(=O)N2CCCCCCC2)ccc1N1CCOC1=O,-9%,1.24

SMILES,% Inhibition,Z score
Fc1cc(Cl)ccc1CN1CCO[C@H](C2CC2)C1,-14%,2.59
CCCc1ccc(-c2ccc(-c3c(-c4ccc(Cl)cc4)cnn3C(=O)c3ccc(C)cc3)cc2)c(F)c1,0%,-0.05
O=C(Cn1ncnn1)N1CCc2cc(Br)cc(F)c2C1,6%,-0.93
CCn1nccc1-c1cc(OC)ns1,6%,-0.64
Cc1ccccc1N1CCC(NCCn2ccnn2)CC1,-2%,0.4
CCc1n[nH]c(NS(=O)(=O)c2cccc(CC#N)c2)n1,-10%,1.39
Cc1cccnc1NC(=O)c1cc(Cl)c2c(c1)OCCCO2,5%,-1.06
O=C(CNc1cccc(Cl)c1F)N1CCC[C@H]1c1cccs1,1%,-0.14
CN(C[C@H]1COc2ccccc2O1)C(=O)c1cc2sccc2[nH]1,-7%,1.05
Cc1csc(-c2nc3cc(Cl)ccc3c(=O)[nH]2)n1,23%,-2.57
N#Cc1ccc(-c2cc(N3CCNCC3)[nH]n2)cc1,-20%,2.92
CO[C@H]1CCCN(C(=O)Nc2c(C(F)(F)F)c(C)nn2C)CC1,-2%,0.31
CCOc1cccc(CN2CCC3(CC2)c2ccccc2[C@@H](NC(=O)C(C)C)[C@@H]3OC)c1,-5%,0.84
O=C(Nc1cnns1)[C@H]1CCCOC1,10%,-1.42
Cn1cc(-c2cc3n(n2)CCCN3C(=O)CCC(=O)NC2CCCCC2)c2ccccc21,-12%,1.56
CC(C)(C#N)c1ccccc1Br,-2%,0.37
CC(C)c1noc(N2CC3CCC2C3)n1 (stereo not given),-2%,0.19
CN1CCN(C(=O)C2(C#N)CCCC2)c2cc(Cl)ccc21,-5%,0.79
CN(C[C@H]1CCOC1)c1ccnc(Cc2ccccc2)n1,2%,-0.21
CCn1cnnc1[C@H](C)NS(=O)(=O)c1cccnc1,3%,-0.39
CCc1nnc(NC(=O)CNc2ccc(C)cc2)s1,-15%,1.7
O=C(COc1ccc2c(c1)C(=O)CC2)Nc1nc[nH]n1,9%,-1.17

SMILES,% Inhibition,Z score
CCCn1c(C)nnc1COC(=O)c1scnc1C,-1%,0.26
CCOc1ccc(C(=O)N2C[C@@H](CC(=O)O)[C@@H](c3cn(C)nn3)C2)o1,-10%,1.28
O=C1CN(CCCO)C(=O)CCc2ccc(cc2)Oc2cccc(c2)CO[C@H]2CCN(C(=O)c3cn4cccnc4n3)C[C@@H]2N1,5%,-0.73
Cc1nn(C)cc1-c1c(C)c(-c2ccc3c(c2)OCO3)nc(N)c1C#N,-15%,1.45
NC(=O)c1noc([C@@H]2CCCN2S(=O)(=O)Cc2c(F)cccc2F)n1,-3%,0.36
CC1=C(C)CC(C(=O)Nc2nc(-c3ccc(Cl)cc3)cs2)C(C(=O)O)C1 (stereo not given),-10%,1.63
Cc1ccc(N2CCN(c3ccc(C)cc3)C23C(=O)N(Cc2ccccc2Cl)c2ccccc23)cc1,-5%,0.64
Cc1nc(Nc2ccc(Cl)cn2)sc1C(=O)NCc1ccc(F)cc1F,-1%,0.14
O=C(CCn1cncn1)Nc1nc2c(s1)CCCCCC2,-1%,0.11
COc1ccc(-c2noc([C@@H]3CCCN3C3CCOCC3)n2)cc1,1%,-0.19
CN(CC(F)(F)F)C(=O)Nc1cc(Cl)ccc1Cl,-3%,0.48
Cc1ccc(C(=O)c2cn(Cc3ccc(N4CCCC4=O)cc3)c3nc(C)ccc3c2=O)c(C)c1,-6%,0.76
O=c1[nH]c(=O)n(C2CC2)cc1CNC1CCCCCC1,-1%,0.17
O=C(NC[C@H]1CCN(S(=O)(=O)c2cccs2)C1)N1CC(CC2CC2)C1,-9%,1.01
CN(CCc1ccncc1)Cc1noc(-c2ccsc2)n1,-9%,1.46
O=C(Cc1ccc2[nH]ncc2c1)N1Cc2ncccc2N2CCC[C@H]2C1,-7%,0.9
Cc1nc(C(C)C)cc(N2CCN(Cc3ccc4c(c3)OCO4)CC2)n1,-7%,1.34
COc1ccccc1C(=O)N(CC(=O)N(Cc1ccco1)C[C@H]1CCCO1)CC(C)C,-9%,1.64
CC1CCC(C(=O)O)C(C)N1Cc1cccnc1C(F)(F)F (stereo not given),-12%,1.87
CCc1nc(C)c(C(=O)NC(C)(C)CC)s1,-10%,1.07
CCn1cc(C(=O)N2CCC(Cc3ccc(CO)cc3)CC2)cn1,-9%,1.65
O=C1CN(S(=O)(=O)c2ccc3ncsc3c2)CN1CC(F)(F)F,-1%,0.09

SMILES,% Inhibition,Z score
CCNC(=O)N(CC(=O)N1CCc2sccc2[C@@H]1COc1cccc(F)c1)CC1CC1,-9%,1.69
O=C(NC[C@H](O)c1ccc(-c2ccsc2)cc1)c1ccc(Cl)s1,8%,-1.06
C[C@@H]1CNCCN1S(=O)(=O)c1cccc(Br)c1,-14%,2.19
COc1ccc(N2CCN(C(=O)Nc3snnc3C(=O)N3CCN(c4ccccn4)CC3)CC2)cc1,4%,-0.49
CCNC(=O)c1ccccc1NCc1noc2c1COCC2,-14%,1.62
COc1ccc(C(NC2CCN(C)C2=O)c2ccc(C)cc2)cc1 (stereo not given),-8%,0.81
Cc1cccc(C(=O)Nc2nn(C)c3c2C[C@H](C)C(=O)N3)c1,9%,-1.14
Cc1cc(C)n(-c2nc3c(c(=O)n2CC(=O)NCc2ccc4c(c2)OCO4)CCC3)n1,-2%,0.25
N#CC1(C(=O)Nc2ccc(NC[C@H]3CCCO3)c(F)c2)CCCCC1,-14%,1.76
CC(C)c1nnc(NCc2csc(-c3ccccn3)n2)s1,-22%,4.47
c1cc(-c2nc(C3CCOCC3)nn2C[C@H]2COCCO2)n[nH]1,-6%,0.79
O=c1[nH]nc(CCc2ccccc2)n1Cc1ccccc1F,-10%,1.96
CN(C)CC(=O)N1CCCC[C@@H]1CCc1ccccn1,-17%,2.29
c1ccc2c(C(c3c[nH]c4ccccc34)c3c[nH]c4ccccc34)c[nH]c2c1,-27%,3.19
Cc1ccccc1[C@H](C(=O)O)N1CCC2(CC1)COCCO2,-3%,0.53
O=C(c1nc(=O)[nH][nH]1)N1CCCC1CC(O)c1ccccc1 (stereo not given),-2%,0.35
C#CCN(CC1CC1)C(=O)CC1(O)CCCCC1,-8%,0.86
O=C(CCc1ccc(-c2ccccc2)cc1)N[C@@H]1C[C@H]2OCC[C@@H]12,-3%,0.61
Cc1nc(C)c(C(=O)NC[C@@H](O)Cc2ccc(F)cc2F)s1,-11%,1.14
